# Experimental data published in PubChem BioAssay AID485297 (National Center for Advancing Translational Sciences (NCATS), 2010).
# The whole screen tested about 320,000 compounds, of which about 9,100 (2.8%) were called active. The inconclusive results got no clear call from the source; some entries with a clear call stand among them for comparison. The call rests on the fitted dose curve; in most records, active means well fitted activation curve with a large enough effect; inconclusive means small, poorly fitted or top-dose-only effect; inactive means no such curve, though single readings can be large or run the other way. No potency is given beside an inconclusive call; the fits are too rough.
# Test: qHTS Assay for Rab9 Promoter Activators; further: nearly all actives have a fitted effect of over 60% in size; on activation, negative = inhibition: % of control where 0% means no effect
# Conditions: Huh7 Rab9 promoter-luciferase reporter, luminescence, 24 h; series mostly up to 9.22 µM; activation, negative = inhibition: at the top concentration
# Summary of the method: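 Cell-based reporter: Huh7 stable for Rab9 promoter-driven luciferase, plated in reduced-serum medium with 10% FBS at 1500 cells/well, compound-treated 24 h at 37 °C, luminescence read after 10 min reagent.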
# Potency means the concentration at half of the fitted maximal effect; tags describe the fitted curve by direction and shape.
Structure (SMILES),Potency,"activation, negative = inhibition"
CCC(C)c1ccc(NC(=O)C2=CC=CN3CCS(=O)(=O)N=C23)cc1 (stereo not given),"inconclusive [activator, single point]",
CC1CCN(c2c([N+](=O)[O-])nn(-c3ccc4c(c3)OCCO4)[n+]2[O-])CC1,"inconclusive [activator, single point]",
O=C(Nc1nc2ccc([N+](=O)[O-])cc2s1)c1ccncc1,"inconclusive [activator, partial curve, poor fit]",
Cc1ccccc1C(=O)Nc1ccc(S(=O)(=O)N2CCN(C)CC2)cc1,,inactive: -5.38%
O=C(/C=C/c1ccc2c(c1)OCO2)c1ccc[nH]1,"inconclusive [activator, single point]",
O=C(Nc1ccccc1)N1CCC(c2ccccc2)C1 (stereo not given),active: 1.78 µM,
CCC(=O)Nc1c(C)nn(C(=O)CC)c1C,,inactive: -8.41%
Cc1ccc(-c2nn(-c3ccccc3)cc2C2CC(c3cccs3)=NN2C(=O)CCC(=O)O)cc1 (stereo not given),,inactive: -1.29%
COCCn1c(=N)c(C(=O)NCCc2ccc(OC)cc2)cc2c(=O)n3cccc(C)c3nc21,,inactive: 4.5%
COc1cccc(NC(=O)CN(C)C(=O)c2cc(-c3ccc(C)o3)nc3ccccc23)c1,,inactive: -0.333%
O=C(Nc1ccc(F)c(Cl)c1)c1ccc2c(=O)n3c(nc2c1)CCCCC3,active: 1.78 µM,
C/C(=N\NC(=O)c1cc(Br)ccc1O)c1cccs1,active: 3.55 µM,
CC(C)(C)c1ccc(C(=O)Nc2ccc(C(=O)N3CCCC3)cc2)cc1,,inactive: -1.53%
COc1cccc(NC(=O)Cc2nc(-c3ccccc3)sc2-c2ccc(C)cc2)c1,,inactive: 8.45%
O=C(O)c1ccc(NC(=S)NC(=O)c2ccc(-c3ccccc3)cc2)cc1,"inconclusive [activator, partial curve]",
CC(C)c1ccc(NCCC(=O)c2cccs2)cc1,"inconclusive [activator, single point]",
Cc1cc(C)n(C(=O)CNC(=O)c2ccc(Cl)cc2Cl)n1,,inactive: 0.627%
Brc1ccc(-c2csc(/N=C/N3CCCC3)n2)cc1,"inconclusive [activator, partial curve]",
Cc1occc1C(=O)Nc1nnc(C(F)(F)F)s1,,inactive: 1.61%
CCOC(=O)Cn1cncc1-c1ccc([N+](=O)[O-])cc1,"inconclusive [activator, partial curve]",
Cc1ccc(N/C=C/C(=O)C(C)(C)C)c(O)c1,,inactive: 16.6%
O=S(=O)(c1cccc2cccnc12)N1CCN(Cc2ccc3c(c2)OCO3)CC1,,inactive: -3.94%
c1ccc(C(Cc2nc(-c3ccccn3)no2)c2ccccc2)cc1,"inconclusive [activator, single point]",
CCOc1cccc(C(=O)Nc2nccs2)c1,"inconclusive [activator, single point]",
COc1cccc(-c2ncc3ccccn23)c1,active: 2.82 µM,
Cc1ccccc1OCc1nc(-c2ccc(NC(=O)c3cccs3)cc2)no1,"inconclusive [activator, single point]",
c1ccc(-c2nc3ccccc3o2)nc1,"inconclusive [activator, partial curve]",

Structure (SMILES),Potency,"activation, negative = inhibition"
Cc1cccc(N2CCN(C(=O)CCCOc3ccccc3)CC2)c1C,active: 2.51 µM,
O=C(NC(=O)c1ccccc1)Nc1ccccc1O,"inconclusive [activator, single point]",
COc1ccc(C(=O)CN2C(=O)c3ccccc3S2(=O)=O)cc1Br,"inconclusive [activator, partial curve]",
Clc1cccc(CSc2ccc(-c3ccco3)nn2)c1,,inactive: 27%
CCCCCCOC(=O)Sc1nc2ccccc2o1,,inactive: -0.453%
O=C(Nc1cccc(Br)c1)c1cc2ccccc2o1,active: 2.82 µM,
Cc1nc2cc(NC(=O)c3ccco3)ccc2n1C,active: 0.316 µM,
COc1ccc(C(CNC(=O)c2cc(S(=O)(=O)N3CCCC3)ccc2Cl)N2CCCC2)cc1 (stereo not given),,inactive: -2.02%
O=C(Cc1ccccc1)NCC(=O)Nc1cccc(Cl)c1,,inactive: -3.39%
COc1ccc(-c2cc(C(=O)Nc3cc(C)on3)no2)cc1,"inconclusive [activator, single point]",
CC1=C(C#N)C(=O)NC(=O)/C1=C\c1ccc(-c2ccc(C)cc2[N+](=O)[O-])o1,,inactive: 1.33%
O=C(CSc1ccc(-c2nc3ccccc3[nH]2)cn1)Nc1ccc2c(c1)OCCO2,"inconclusive [activator, partial curve]",
O=C(/C=C/c1ccc2c(c1)OCO2)c1ccco1,"inconclusive [activator, single point]",
CCn1c(C)nc2cc(C(=O)NNC(=S)Nc3ccc(F)cc3)ccc21,"inconclusive [activator, partial curve]",
Cc1cc(/C=C2/NC(=O)N(c3ccccc3)C2=O)c(C)n1C(C)C,active: 1.58 µM,
COc1ccc(-c2csc(-c3ccccc3)n2)c(OC)c1,"inconclusive [activator, single point]",
O=C(Nc1ccc(NC(=O)c2cccs2)cc1Cl)c1ccco1,"inconclusive [activator, partial curve]",
CCNC(=S)NNC(=O)c1cc(-c2ccc(OCC)cc2)nc2ccccc12,"inconclusive [activator, partial curve]",
CC1CCC/C(=N\NC(=O)Nc2ccccc2)C1 (stereo not given),,inactive: 0.789%
O=C(CCNS(=O)(=O)c1cccs1)N1CCc2ccccc2C1,"inconclusive [activator, partial curve, poor fit]",
Cc1sc(-n2c(C)cc(/C=C3\SC(=S)NC3=O)c2C)c(C#N)c1C,"inconclusive [activator, single point]",
COc1ccc(-c2cc3nc(CCl)[nH]c(=O)c3s2)cc1,"inconclusive [activator, partial curve]",
CCOc1ccc(NC(=O)CN(C)C(=O)c2cn(-c3ccccc3)nc2-c2cccs2)cc1OCC,,inactive: -0.563%
CCc1ccc(Oc2coc3cc(O)ccc3c2=O)cc1,"inconclusive [activator, partial curve]",
CC(=O)N(C)c1ccc(NC(=O)Nc2cccc3ccccc23)cc1,"inconclusive [activator, partial curve]",
CN(C)c1ccc(C#Cc2ccc3cc(CCO)oc(=O)c3c2)cc1,"inconclusive [activator, single point]",
CC(C)N1CCC(N2CCN(Cc3ccc(-c4ccc(Cl)cc4)o3)CC2CCO)CC1 (stereo not given),,inactive: -2.61%

Structure (SMILES),Potency,"activation, negative = inhibition"
CCOC(=O)c1cnn(-c2nc(-c3ccc(C)cc3)cs2)c1C(F)(F)F,,inactive: -5.17%
Cc1ccc(N(C)S(=O)(=O)c2csc(C(N)=O)c2)cc1C,,inactive: -7.4%
OC(Cc1cccnc1)(Cc1cccnc1)c1cc2ccccc2[nH]1,,inactive: 1.94%
CC(C)c1ccc(/C=N/NC(=O)C2CCCC2)cc1,active: 2.51 µM,
COc1cc(CCC(C)=O)ccc1OC(=O)c1c(F)cccc1Cl,active: 2.51 µM,
O=C(Nc1ccccc1)Nc1cccc(-c2cn3cccnc3n2)c1,"inconclusive [activator, single point]",
CCOc1ccc(NS(=O)(=O)c2c(C)nc3sccn3c2=O)cc1,,inactive: 2.86%
O=C(CSc1ccc(Cl)cc1)N1CCCC1,"inconclusive [activator, single point]",
CC(=O)Nc1ccc(-c2nc3c(C)cccc3[nH]2)cc1,active: 1.58 µM,
COc1cc(N)c(Br)cc1C(=O)O,,inactive: 10.1%
O=C(NNC(=O)c1ccccc1O)c1ccc(Cl)c(S(=O)(=O)N2CCCCC2)c1,,inactive: -4.73%
CCCCCN=C(C)c1c(O)c2ccccc2oc1=O,"inconclusive [activator, single point]",
Cc1nc(SCC(=O)c2ccc(Cl)s2)c2oc3ccccc3c2n1,"inconclusive [activator, single point]",
O=C(c1ccccc1)[C@H]1[C@H](c2ccccc2)[C@@]2(N=C(c3ccccc3)OC2=O)C2c3ccccc3C=NN21 (stereo not given in full),active: 4.47 µM,
Cc1cccc(-c2noc(-c3ccc(F)cc3)n2)c1,active: 0.224 µM,
COc1ccc(Oc2ncnc3sccc23)cc1,"inconclusive [activator, partial curve]",
O=C(Nc1ncc([N+](=O)[O-])s1)c1ccc2c(c1)OCO2,active: 1.26 µM,
O=C(CSc1ccccn1)Nc1ccc2c(c1)CCC2,"inconclusive [activator, single point]",
COc1cccc(CNCc2cccnc2)c1OCc1ccccc1,,inactive: 1.51%
Cc1ccccc1OCC(=O)OCC(=O)c1ccc(OCc2ccccc2)cc1,"inconclusive [activator, partial curve]",
C#CCn1c(=NC(=O)c2ccc(Cl)s2)sc2cccc(OC)c21,"inconclusive [activator, single point]",
COc1ccc(Nc2nc3ccccc3s2)cc1,active: 1.41 µM,
COc1cccc(NC(=O)c2ccc3c(c2)CCN3S(C)(=O)=O)c1,"inconclusive [activator, partial curve]",
CC1=CC(=C(C#N)c2nc3ccccc3s2)C=C(C)N1c1ccc(F)cc1F,"inconclusive [activator, partial curve]",
CCSc1ccc(NC(=O)c2cccnc2)cc1,"inconclusive [activator, partial curve]",
COn1c(-c2ccc(Cl)cc2)nc2ncccc21,"inconclusive [activator, partial curve]",
